Data on 115 sequences can be found in the BET-seq Pho4 binding data (Le et al. 2018).

Some of the results follow. Values were computed here from the reads of four pooled replicates and scatter widely.

The assay concerns the target T1, Pho4 (S. cerevisiae) (UniProt P07270).
T1 sequence: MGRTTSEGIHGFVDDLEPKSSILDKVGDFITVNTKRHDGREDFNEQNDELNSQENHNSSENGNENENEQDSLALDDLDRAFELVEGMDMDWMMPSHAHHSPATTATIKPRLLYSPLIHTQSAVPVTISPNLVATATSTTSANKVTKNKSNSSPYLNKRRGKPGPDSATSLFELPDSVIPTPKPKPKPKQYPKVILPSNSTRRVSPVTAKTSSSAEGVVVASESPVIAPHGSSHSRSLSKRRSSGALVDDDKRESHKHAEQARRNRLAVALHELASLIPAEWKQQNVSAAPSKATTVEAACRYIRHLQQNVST
Description: relative binding free energy (BET-seq); higher = weaker binding. Particulars: reference: library average.
Take AGGTGCACGTGGGTTG: the “relative binding free energy” value is -0.19 kcal/mol.

In the case of AGGAACACGTGAGTTA, the “relative binding free energy” value stood at 0.25 kcal/mol.

As to GTCTACACGTGGTTTT, the “relative binding free energy” value was 0.1 kcal/mol.

With ACTGTCACGTGGGGAA, the “relative binding free energy” value is -0.05 kcal/mol.

Regarding CTAATCACGTGATGTT, the “relative binding free energy” value is 0.2 kcal/mol.

Take GTGGGCACGTGGGGCA: the “relative binding free energy” value is -0.21 kcal/mol.

Take TTAAACACGTGGAGGT: the “relative binding free energy” value is -0.12 kcal/mol.

On to TTGTACACGTGTATCG, for which the “relative binding free energy” value came out at 0.02 kcal/mol.

With TTTGTCACGTGATCAG, the “relative binding free energy” value is 0.1 kcal/mol.

Turning to CACGGCACGTGGGTTT, the “relative binding free energy” value was -0.09 kcal/mol.

Consider AGAGGCACGTGCAAGG, for which the “relative binding free energy” value is -0.13 kcal/mol.

With AAGGGCACGTGTTTAA, the “relative binding free energy” value is -0.17 kcal/mol.

In the case of TTCGTCACGTGGGTAA, the “relative binding free energy” value was -0.13 kcal/mol.

Turning to TTATGCACGTGGGGCG, the “relative binding free energy” value was -0.15 kcal/mol.

As to CGGGTCACGTGGAGTT, the “relative binding free energy” value was 0.15 kcal/mol.

Consider TTTTACACGTGTCTAT, for which the “relative binding free energy” value was found to be 0.11 kcal/mol.

As for GGTATCACGTGTTTTA, the “relative binding free energy” value was found to be 0.12 kcal/mol.

GTGAGCACGTGGGTCT: the “relative binding free energy” value was -0.33 kcal/mol.

With TGGGTCACGTGTCGAT, the “relative binding free energy” value is 0.15 kcal/mol.

Consider GTGTACACGTGATTTG, for which the “relative binding free energy” value stood at 0.3 kcal/mol.

Take TAAGGCACGTGTGCAT: the “relative binding free energy” value is -0.22 kcal/mol.

In the case of GACGTCACGTGTCGTG, the “relative binding free energy” value turned out to be 0.22 kcal/mol.

Turning to TGCGACACGTGTGGGC, the “relative binding free energy” value was determined as 0 kcal/mol.

As to GGGGGCACGTGATATT, the “relative binding free energy” value was determined as 0 kcal/mol.

With TCAGGCACGTGGTTCG, the “relative binding free energy” value is -0.13 kcal/mol.

As to AGGATCACGTGTTGAG, the “relative binding free energy” value came to 0.23 kcal/mol.

For GAAGGCACGTGGATGT, the “relative binding free energy” value is -0.02 kcal/mol.

Consider TAGTTCACGTGTAATG, for which the “relative binding free energy” value was determined as 0.43 kcal/mol.

Take ATGTGCACGTGATGAT: the “relative binding free energy” value was 0.09 kcal/mol.

ACGTGCACGTGTTGGG: the “relative binding free energy” value was -0.06 kcal/mol.

Regarding AGGGACACGTGTTATG, the “relative binding free energy” value is -0.02 kcal/mol.

TTTGTCACGTGGTATG: the “relative binding free energy” value was determined as 0.03 kcal/mol.

For GTTTTCACGTGGTGGA, the “relative binding free energy” value came out at 0.35 kcal/mol.

For AATGGCACGTGTCGTG, the “relative binding free energy” value came to 0.03 kcal/mol.

For the sequence TTTATCACGTGGCAGA, the “relative binding free energy” value came out at 0.13 kcal/mol.

TATAACACGTGGAAGG: the “relative binding free energy” value is 0.05 kcal/mol.

For the sequence TAGTTCACGTGTGTAC, the “relative binding free energy” value amounted to 0.31 kcal/mol.

As for GGGATCACGTGAGCTG, the “relative binding free energy” value was determined as 0.44 kcal/mol.

With TACGGCACGTGCTTGG, the “relative binding free energy” value is -0.23 kcal/mol.

Turning to AGTATCACGTGGATGC, the “relative binding free energy” value came to 0.1 kcal/mol.

CTTTGCACGTGGTACG: the “relative binding free energy” value was -0.17 kcal/mol.

In the case of TCGGTCACGTGTATAG, the “relative binding free energy” value is 0.11 kcal/mol.

In the case of CGAGGCACGTGGGATT, the “relative binding free energy” value is -0.06 kcal/mol.

Take AAGAGCACGTGTATTT: the “relative binding free energy” value was 0.04 kcal/mol.

Consider GTTCTCACGTGATGTT, for which the “relative binding free energy” value was found to be 0.34 kcal/mol.

As for GGACTCACGTGGGGGC, the “relative binding free energy” value is -0.06 kcal/mol.

For the sequence TATAGCACGTGCAGGT, the “relative binding free energy” value was -0.15 kcal/mol.

In the case of AGGTGCACGTGCAGCG, the “relative binding free energy” value is -0.09 kcal/mol.

TCTAGCACGTGGGCGG: the “relative binding free energy” value was -0.21 kcal/mol.

Turning to TCTGTCACGTGAGGGG, the “relative binding free energy” value was 0.24 kcal/mol.

For ATAGGCACGTGTGGAG, the “relative binding free energy” value is -0.01 kcal/mol.

As to GGAGCCACGTGGGTCG, the “relative binding free energy” value was -0.26 kcal/mol.

For the sequence TTTTGCACGTGAAAGC, the “relative binding free energy” value turned out to be 0.17 kcal/mol.

TCTAGCACGTGTTGGT: the “relative binding free energy” value is -0.08 kcal/mol.

With TCGGGCACGTGATTGA, the “relative binding free energy” value was -0.06 kcal/mol.

As to CATTGCACGTGTTAGA, the “relative binding free energy” value amounted to 0.08 kcal/mol.

Take AAACGCACGTGTAGGT: the “relative binding free energy” value came out at 0.01 kcal/mol.

AAGACCACGTGTGGTG: the “relative binding free energy” value is -0.05 kcal/mol.

AGTTTCACGTGTTGGG: the “relative binding free energy” value is 0.3 kcal/mol.

Turning to CGTTGCACGTGTGGCG, the “relative binding free energy” value is -0.01 kcal/mol.

As for AATGGCACGTGGTGAC, the “relative binding free energy” value was -0.16 kcal/mol.

As for TGTAACACGTGAGGAT, the “relative binding free energy” value came to 0.19 kcal/mol.

As for GTTGGCACGTGGTGGG, the “relative binding free energy” value was -0.05 kcal/mol.

As to CTATGCACGTGTTTTT, the “relative binding free energy” value was -0.1 kcal/mol.

Regarding CCGGGCACGTGTAGTA, the “relative binding free energy” value was found to be 0.08 kcal/mol.

Turning to AATTGCACGTGCAGTG, the “relative binding free energy” value was determined as 0.04 kcal/mol.

With TGTCGCACGTGGATTG, the “relative binding free energy” value worked out at 0.02 kcal/mol.

For GGGGTCACGTGATGAG, the “relative binding free energy” value is 0.32 kcal/mol.

On to TGGGGCACGTGTCGTA, for which the “relative binding free energy” value is -0.09 kcal/mol.

With GGGGCCACGTGTTTGG, the “relative binding free energy” value is -0.1 kcal/mol.

Regarding TGGGCCACGTGCGGAG, the “relative binding free energy” value came out at 0 kcal/mol.

For GAGTTCACGTGGTGAC, the “relative binding free energy” value is 0.4 kcal/mol.

Turning to TATTTCACGTGTGCGG, the “relative binding free energy” value was determined as 0.21 kcal/mol.

Regarding TGATTCACGTGACTGT, the “relative binding free energy” value turned out to be 0.18 kcal/mol.

For the sequence TGATCCACGTGCTGGG, the “relative binding free energy” value is -0.04 kcal/mol.

For TCGCGCACGTGGGTTG, the “relative binding free energy” value was -0.27 kcal/mol.

Turning to GTGTTCACGTGAAGAG, the “relative binding free energy” value was found to be 0.33 kcal/mol.

As to ATGCTCACGTGGAAGT, the “relative binding free energy” value was 0.3 kcal/mol.

As for TATAGCACGTGTGTAA, the “relative binding free energy” value turned out to be 0.04 kcal/mol.

For the sequence CGTTGCACGTGTGTGA, the “relative binding free energy” value was -0.07 kcal/mol.

Turning to TGCGCCACGTGGGTCT, the “relative binding free energy” value was -0.13 kcal/mol.

Take CGTGTCACGTGAATTT: the “relative binding free energy” value amounted to 0.24 kcal/mol.

Regarding GGGATCACGTGCGAGT, the “relative binding free energy” value is 0.08 kcal/mol.

On to TGTGTCACGTGGGGTA, for which the “relative binding free energy” value is -0.04 kcal/mol.

As for GTATTCACGTGACTTG, the “relative binding free energy” value came out at 0.28 kcal/mol.

With AGGTGCACGTGTTTAT, the “relative binding free energy” value was 0.05 kcal/mol.

Consider GTAGTCACGTGTCGTG, for which the “relative binding free energy” value is 0.22 kcal/mol.

TATGTCACGTGACAGT: the “relative binding free energy” value is 0.17 kcal/mol.

Consider GCACTCACGTGGGTGG, for which the “relative binding free energy” value is 0.03 kcal/mol.

Take TATTGCACGTGCGGCT: the “relative binding free energy” value is -0.03 kcal/mol.

CGATTCACGTGAGGGA: the “relative binding free energy” value amounted to 0.47 kcal/mol.

Turning to TTATCCACGTGGTGAT, the “relative binding free energy” value amounted to 0.01 kcal/mol.

Consider TTCTTCACGTGTGTTA, for which the “relative binding free energy” value came out at 0.22 kcal/mol.

Turning to GATGTCACGTGGGTAA, the “relative binding free energy” value stood at 0.01 kcal/mol.

For the sequence GTGTTCACGTGGCGGT, the “relative binding free energy” value was 0.24 kcal/mol.

For GAGGTCACGTGTCATG, the “relative binding free energy” value came out at 0.13 kcal/mol.

For GTAGGCACGTGAGCGA, the “relative binding free energy” value came to 0.04 kcal/mol.

In the case of AGTTGCACGTGGCTTT, the “relative binding free energy” value was -0.19 kcal/mol.

With CTTACCACGTGTGGGG, the “relative binding free energy” value worked out at 0 kcal/mol.

Consider TATGTCACGTGGGATC, for which the “relative binding free energy” value was -0.08 kcal/mol.

As to TCGGGCACGTGGCTTA, the “relative binding free energy” value is -0.06 kcal/mol.

For TTCTACACGTGAGTGG, the “relative binding free energy” value was 0.24 kcal/mol.

TAAGTCACGTGTTGTC: the “relative binding free energy” value was determined as 0.28 kcal/mol.

With GGTGTCACGTGTTACA, the “relative binding free energy” value was determined as 0.05 kcal/mol.

For the sequence ATTTGCACGTGCGGGA, the “relative binding free energy” value is -0.08 kcal/mol.

AGGGTCACGTGGCCGT: the “relative binding free energy” value is -0.01 kcal/mol.

GTGTCCACGTGGGGAG: the “relative binding free energy” value was -0.08 kcal/mol.

As for CATAACACGTGGGTTG, the “relative binding free energy” value is -0.18 kcal/mol.

Turning to TTAAGCACGTGCCGGT, the “relative binding free energy” value is -0.24 kcal/mol.

As to TTAAACACGTGGTAAT, the “relative binding free energy” value turned out to be 0.06 kcal/mol.

Regarding TGACTCACGTGAGGTG, the “relative binding free energy” value was 0.12 kcal/mol.

Turning to GATTACACGTGGTAGG, the “relative binding free energy” value was found to be 0.15 kcal/mol.

On to TGGTTCACGTGTTAAA, for which the “relative binding free energy” value turned out to be 0.3 kcal/mol.

Regarding TTTAGCACGTGGGTCA, the “relative binding free energy” value is -0.19 kcal/mol.

Regarding TTTCGCACGTGTTAAT, the “relative binding free energy” value worked out at 0.05 kcal/mol.
